Consider 1 compound from PubChem BioAssay AID588754 (Broad Institute, 2011).

For part of its entries the source gives two or more results. The list is limited to them. The source may hold further records. The records of an entry are repeated measurements across runs, samples, wells, individuals or studies. Marks in square brackets tell the records apart. Letters count within one entry.

The target of the test is Scavenger receptor class B member 1 (Mus musculus) (UniProt Q61009). Nature of the test: SR-BI-mediated DiI-HDL uptake inhibitors, dose response, ldlA[mSR-BI] CHO cells, powder samples, set 5 (AID 588754). The conditions noted are these: DiI-HDL uptake fluorescence, 3 h. In short, it runs like this: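 Material: ldlA[mSR-BI] CHO cells expressing mouse SR-BI; buffer or medium: Ham's F12 with fatty acid-free BSA and HEPES; also added: DiI-labeled HDL at 10 µg/mL final; timing: 3 h at 37 °C; signal: bottom-read DiI fluorescence after washing, ex 550/em 595 nm; measure: HDL uptake fluorescence, decrease meaning inhibition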
Chain of UniProt Q61009 (Q61009 whole entry, looked up): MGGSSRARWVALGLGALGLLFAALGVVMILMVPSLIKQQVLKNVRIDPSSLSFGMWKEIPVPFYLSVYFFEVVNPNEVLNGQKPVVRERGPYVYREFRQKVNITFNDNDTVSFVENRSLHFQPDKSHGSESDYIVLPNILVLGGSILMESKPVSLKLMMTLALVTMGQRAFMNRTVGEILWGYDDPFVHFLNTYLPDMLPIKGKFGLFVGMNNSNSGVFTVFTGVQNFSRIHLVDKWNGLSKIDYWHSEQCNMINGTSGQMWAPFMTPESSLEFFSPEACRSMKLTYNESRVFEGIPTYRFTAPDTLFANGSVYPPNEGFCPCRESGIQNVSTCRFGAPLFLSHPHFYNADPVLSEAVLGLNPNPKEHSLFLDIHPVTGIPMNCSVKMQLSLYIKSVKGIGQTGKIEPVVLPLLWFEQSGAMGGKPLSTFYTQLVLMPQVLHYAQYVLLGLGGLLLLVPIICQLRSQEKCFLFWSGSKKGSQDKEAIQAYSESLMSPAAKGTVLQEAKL

Take `CCC(=O)N1CCc2cc(-c3csc(NC(=O)c4ccco4)n3)ccc21`: the AC50 (as a rule, the concentration at which the activity in the assay is half-maximal) was 18.1 nM [sample A] and 974 nM [sample B].
